Experimental data: PubChem BioAssay (NCI)
Where “and” joins values, the source holds several entries; their conditions need not be identical. Equal entries are not always repeated.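 Following 48 hours of exposure in 96-well plates, responses at five concentrations were used to interpolate endpoints linearly. At the GI50, growth is halved. TGI is the concentration that stops growth completely.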 Bridge positions count the residues as written; N and C are the ends. Square brackets hold non-standard residues; d marks the D form. Peptide text beside a SMILES is read from it. * marks the point of attachment. ξ: configuration not given here. X21 = O=C(/C=C/C=C/C=C/C=C/C=C/C(=O)*)NC1=C(O)CCC1=O; NMeA = CN[C@@H](C)C(=O)O; ξF = NC(Cc1ccccc1)C(=O)O; ξA = CC(N)C(=O)O

Tested on: NCI-H322M lung
Experiment: growth of human tumour cells (NCI), 48 h

`CC1NC(=O)[C@H](C)N(C)C(=O)[C@@H]2CCCN2C(=O)[C@@H](NC(=O)C(Cc2ccccc2)NC(=O)/C=C/C=C/C=C/C=C/C=C/C(=O)NC2=C(O)CCC2=O)COC(=O)[C@@H]2CCCN2C1=O` (some centres undefined) (X21-[ξF]SP[NMeA][ξA]P; ester 2-C) and `CCN1CCCC(NCc2c3ccccc3c(CNC3CCCN(CC)C3)c3ccccc23)C1` (centres undefined) cannot be ordered by TGI: greater than 100 µM for the first, greater than 59.4 µM for the second.

Compared with `CC(C)CCC[C@@H](C)C1CCC2[C@@H]3CC=C4C[C@@H](C(=O)NCCN(C)C)CC[C@]4(C)C3CC[C@@]21C` (some centres undefined), `CC1CC(O)C(=O)C(O[C@@H]2C[C@@H]3CC[C@@H]4[C@H](CC[C@]5(C)C(C6=CC(=O)OC6)CC[C@]45O)[C@@]3(C=O)C[C@H]2O)O1` (some centres undefined) is lower in TGI: greater than 100 µM for the first, 0.143 µM for the second.

`CN(C)CCNCCN` and `NCCNCC1CCNCC1` cannot be ordered by TGI: greater than 100 µM for the first, greater than 100 µM for the second.

`CCCC/C(=C\C1=C(C)C(=O)C(OC)=C(OC)C1=O)C(=O)O` and `COC(=O)CCc1cc(OC)c2c(c1)[C@H](C(=O)OC)[C@@H](c1ccc(O)c(OC)c1)O2` cannot be ordered by TGI: greater than 100 µM for the first, greater than 100 µM for the second.

Compared with `S=c1[nH]c2ccc(Br)cc2c(=S)s1`, `Nc1nc(-c2ccc(Cl)c([N+](=O)[O-])c2)cs1` is higher in TGI: 81.6 µM for the first, greater than 100 µM for the second.

Compared with `N#CC(N=Nc1ccc(Cl)cc1)c1nc2ccccc2o1` (centres undefined), `O=C(Nc1ccccc1F)c1cc2ccc(O)cc2oc1=Nc1ccccc1F` is lower in TGI: greater than 100 µM for the first, 4.6 µM for the second.

`CC1(C)C2CC(=O)C1(C)C(O)C2Br` (centres undefined) and `CC(C)=C1CCC(CN(C)C)C1=O` (centres undefined) cannot be ordered by TGI: greater than 100 µM for the first, greater than 100 µM for the second.

`O=C(CC(=O)C1CCOC1=O)C(=O)Nc1cccc(Cl)c1` (centres undefined) and `CC(C(=O)c1ccc(Cl)cc1)/C(=N/NC(=O)NN)C(=O)Nc1cccc(C(F)(F)F)c1` (centres undefined) cannot be ordered by TGI: greater than 100 µM for the first, greater than 100 µM for the second.

First: c1coc(-c2c3ccc(=[N+]4CCCCC4)cc-3oc3cc(N4CCCCC4)ccc23)c1
Second: COc1ccc(/C(C)=C(\c2ccc(OCCN3CCCCCC3)cc2)c2ccc(OC(=O)C3CCCCC3)cc2)cc1
The TGI of the first is 13-fold lower: 0.55 µM for the first, 7.04 µM for the second.

Going from `C=CC(=O)N1CN(C(=O)C=C)CN(C(=O)C=C)C1` to `COC(=O)C1C(O)C(C(=O)OC)C(C)N(C)C1C` (centres undefined), the TGI rises from 95.4 µM to greater than 100 µM.

`COc1c(C)n(CCO)ccc1=O` and `CN(Cc1ccccc1)c1cc(=O)n(C)c(=O)[nH]1` cannot be ordered by TGI: greater than 100 µM for the first, greater than 100 µM for the second.

`CCOC(=O)NC(=O)c1cn(C2CCCCC2)c(=O)[nH]c1=O` and `CCOC(=O)NC(=O)c1cn(C(CC)COC(=O)NCCCCCCNC(=O)OCC(CC)n2cc(C(=O)NC(=O)OCC)c(=O)[nH]c2=O)c(=O)[nH]c1=O` (centres undefined) cannot be ordered by TGI: greater than 100 µM for the first, greater than 100 µM for the second.

Going from `CC1=C2C(=C[C@H]3[C@]4(C)CCCC(C)(C)[C@H]4CC[C@]34O[C@H]24)OC1=O` to `C/C1=C\CC[C@@]2(C)O[C@@H]2C[C@@H](C2(C)CO2)CC/C(C)=C/CC1` (some centres undefined), the TGI falls from greater than 100 µM to 69 µM.

Compared with `ClCCN(CCCl)c1ccc(CNc2ccccc2)cc1`, `Nc1nc(Cl)cc(NCC2(CO)CCC(CCc3ccccc3)C2)n1` (centres undefined) is lower in TGI: greater than 100 µM for the first, 25 µM for the second.

Going from `CCCCCCCCCCNC(=O)CI` to `NCCCN1CCN(CCCNc2ccc3nnn4c5ccccc5c(=O)c2c34)CC1`, the TGI rises from 30.4 µM to 68.4 µM (2.3-fold).

`O=C(Cc1ccccc1)NN1C(=O)/C(=C\c2ccccc2)SC1=Nc1ccccc1` and `O=C(/C(=C\c1c(-c2ccccc2)[nH]c2ccccc12)S(=O)(=O)c1ccccc1)c1ccccc1` cannot be ordered by TGI: greater than 100 µM for the first, greater than 100 µM for the second.

First: COC(C)(C)[C@@H](O)[C@H]1C[C@H](C)[C@@]2(CC[C@]3(C)[C@@H]2CC[C@@H]2[C@@]4(C)CC[C@@H](OC(C)=O)C(C)(C)[C@@H]4C[C@@H](OC4OC(COC(C)=O)C(O)C(O)C4O)[C@]23C)O1 (some centres undefined)
Second: CC(C)(C)[Si](C)(C)OC1[C@@H](CNC(=O)NC(=O)CCl)O[C@@H](n2cnc3c(N)ncnc32)[C@H]1O[Si](C)(C)C(C)(C)C (some centres undefined)
The TGI of the first is 3.9-fold lower: 4.48 µM for the first, 17.5 µM for the second.

`Cc1ccccc1C1=[N+]([O-])c2ccc(Cl)cc2C1=O` and `O=C1Nc2ccccc2/C1=C1\CCc2cc(O)ccc21` cannot be ordered by TGI: 48.2 µM for the first, greater than 25 µM for the second.

Compared with `CO[C@H]1Nc2c(ccc(C)c2O)C(=O)N2C=C(/C=C/C(N)=O)C[C@@H]12`, `COc1c(O)c2c3c(c(C)cc(O)c3c1O)C(=O)C(O)(C(C)(C)C(C)=O)C2=O` (centres undefined) is higher in TGI: 0.812 µM for the first, greater than 100 µM for the second.

Compared with `N#CCCN1C/C(=C/c2ccc(Br)cc2)C(=O)/C(=C/c2ccc(Br)cc2)C1`, `O=C(N/C(=C\c1ccc([N+](=O)[O-])cc1)c1nc2ccccc2[nH]1)c1ccccc1` is higher in TGI: 11.4 µM for the first, greater than 100 µM for the second.

First: CC1(C)CN=C(NN=C(/C=C/c2ccc(C(F)(F)F)cc2)/C=C/c2ccc(C(F)(F)F)cc2)NC1
Second: CC(=O)Oc1cc(C(F)(F)F)ccc1C(=O)OC1(C)OC(=O)c2ccc(C(F)(F)F)cc2O1 (centres undefined)
The TGI of the first is lower: 2.92 µM for the first, greater than 100 µM for the second.

`Cn1ccnc1C(O)(c1nccn1C)c1nccn1C` and `COc1ccc(-c2nccn2-c2ccc(OC)cc2)cc1` cannot be ordered by TGI: greater than 100 µM for the first, greater than 100 µM for the second.

`O=c1[nH]cnc(NC2C=C(CO)C(O)C2O)c1[N+](=O)[O-]` (centres undefined) and `COc1nc2ncc([C@@H](OC(C)=O)[C@@H](COC(C)=O)OC(C)=O)nc2c(=O)[nH]1` cannot be ordered by TGI: greater than 100 µM for the first, greater than 100 µM for the second.

`COC(=O)C(=O)C(C(C)=O)C(=O)NCc1ccc(OC)c(OC)c1` (centres undefined) and `COc1ccc(-c2oc(/C=N/NC(N)=S)c([N+](=O)[O-])c2-c2ccc(OC)c(OC)c2)cc1OC` cannot be ordered by TGI: greater than 100 µM for the first, greater than 100 µM for the second.

`NC(=O)C(=O)CC(=O)c1ccccc1NC1=CC(=O)C(=O)c2ccccc21` and `CCOC(=O)C(Cl)(Cl)/S(=N\S(=O)(=O)c1ccccc1)NC(=O)c1ccccc1` (centres undefined) cannot be ordered by TGI: greater than 100 µM for the first, greater than 100 µM for the second.

`O=C1NCCS(=O)(=O)N[C@@H](CC2=CC=CCC2)C(=O)N2CCCC12` (some centres undefined) and `C[C@]12CC[C@@H]3c4ccc(O)cc4CC[C@H]3[C@@H]1C/C(=C\c1ccncc1)[C@@H]2O` cannot be ordered by TGI: greater than 100 µM for the first, greater than 100 µM for the second.

`Cc1cccc(C2=C/C(=C(\SS/C(C(=O)c3ccc(OCC(=O)O)c(Cl)c3Cl)=C3\C=C(c4cccc(C)c4)SS3)C(=O)c3ccc(OCC(=O)O)c(Cl)c3Cl)SS2)c1` and `O=C(O)C(SC1=NNC2(C(=O)N1)c1ccccc1-c1ccccc12)SC1=NNC2(C(=O)N1)c1ccccc1-c1ccccc12` cannot be ordered by TGI: greater than 100 µM for the first, greater than 10 µM for the second.

`O=C(Oc1cc(=O)c(OC(=O)c2ccccc2)co1)c1ccccc1` and `O=C(/C=C/c1ccccc1)c1ccccc1` cannot be ordered by TGI: greater than 100 µM for the first, greater than 10 µM for the second.

`CCC1=NC(C(F)(F)F)(C(F)(F)F)N=C(N2CCOCC2)O1` and `CC(=O)N1CCN(c2ccc(OCC3COC(Cn4ccnc4)(c4ccc(Cl)cc4Cl)O3)cc2)CC1` (centres undefined) cannot be ordered by TGI: greater than 100 µM for the first, greater than 100 µM for the second.

`COc1cccc(/C=N/[N-]C(=O)c2ccncc2)c1[O-].COc1cccc(/C=N/[N-]C(=O)c2ccncc2)c1[O-].[O]=[U](=[O])([OH2+])[OH2+]` and `C#CCOc1cccc(Nc2ncnc3c(NC(=O)C=C)cccc23)c1` cannot be ordered by TGI: greater than 100 µM for the first, greater than 100 µM for the second.

`COC(=O)c1c2c(cc3c1CCC3)CCC2` and `O=C(O)c1cc(-c2ccc3c(O)c(O)ccc3c2)ccc1O` cannot be ordered by TGI: greater than 100 µM for the first, greater than 75 µM for the second.

`Nc1cc(Br)c(-c2nnc(CCC(=O)c3nc4ccccc4[nH]3)o2)c(Br)c1` and `c1csc(-c2ccc(-c3cccs3)c3nsnc23)c1` cannot be ordered by TGI: greater than 100 µM for the first, greater than 100 µM for the second.

`NNC1=N/C(=C\c2ccco2)C(Cl)=N1` and `Cc1ccc(OCCOCCOCCOCCOc2ccc(C)n(O)c2=S)c(=S)n1O` cannot be ordered by TGI: greater than 100 µM for the first, greater than 69.4 µM for the second.

`CCCC/C(=C\C1=C(C)C(=O)C(OC)=C(OC)C1=O)C(=O)O` and `O=C(/C(=C\c1c(-c2ccccc2)[nH]c2ccccc12)S(=O)(=O)c1ccccc1)c1ccccc1` cannot be ordered by GI50: greater than 100 µM for the first, greater than 100 µM for the second.

First: c1coc(-c2c3ccc(=[N+]4CCCCC4)cc-3oc3cc(N4CCCCC4)ccc23)c1
Second: COc1ccc(/C(C)=C(\c2ccc(OCCN3CCCCCC3)cc2)c2ccc(OC(=O)C3CCCCC3)cc2)cc1
The GI50 of the first is 12-fold lower: 0.176 µM for the first, 2.19 µM for the second.

`C=CC(=O)N1CN(C(=O)C=C)CN(C(=O)C=C)C1` and `C#CCOc1cccc(Nc2ncnc3c(NC(=O)C=C)cccc23)c1` are within 1.5-fold of each other in GI50: 31.2 µM for the first, 26.3 µM for the second.

`ClCCN(CCCl)c1ccc(CNc2ccccc2)cc1` and `COc1ccc(-c2nccn2-c2ccc(OC)cc2)cc1` are within 1.5-fold of each other in GI50: 27.5 µM for the first, 34.9 µM for the second.

Going from `CCCCCCCCCCNC(=O)CI` to `Cc1ccc(OCCOCCOCCOCCOc2ccc(C)n(O)c2=S)c(=S)n1O`, the GI50 falls from 16.2 µM to 0.0278 µM (580-fold).

Going from `N#CCCN1C/C(=C/c2ccc(Br)cc2)C(=O)/C(=C/c2ccc(Br)cc2)C1` to `O=C1Nc2ccccc2/C1=C1\CCc2cc(O)ccc21`, the GI50 rises from 3.07 µM to 8.92 µM (2.9-fold).

Going from `CC1(C)CN=C(NN=C(/C=C/c2ccc(C(F)(F)F)cc2)/C=C/c2ccc(C(F)(F)F)cc2)NC1` to `COc1cccc(/C=N/[N-]C(=O)c2ccncc2)c1[O-].COc1cccc(/C=N/[N-]C(=O)c2ccncc2)c1[O-].[O]=[U](=[O])([OH2+])[OH2+]`, the GI50 rises from 1.47 µM to 4.34 µM (3-fold).

`CC(C)(C)[Si](C)(C)OC1[C@@H](CNC(=O)NC(=O)CCl)O[C@@H](n2cnc3c(N)ncnc32)[C@H]1O[Si](C)(C)C(C)(C)C` (some centres undefined) and `Nc1cc(Br)c(-c2nnc(CCC(=O)c3nc4ccccc4[nH]3)o2)c(Br)c1` are within 1.5-fold of each other in GI50: 9.73 µM for the first, 8.15 µM for the second.

`OC(c1cc(-c2ccc(C(F)(F)F)cc2)nc(C(F)(F)F)c1)C1CCCCN1` (centres undefined) was tested, and the GI50 was 1.98 µM and 3 µM.

With `OC(c1cc(-c2ccc(C(F)(F)F)cc2)nc(C(F)(F)F)c1)C1CCCCN1` (centres undefined) the TGI was 4.77 µM and 10.2 µM.
